Inconclusive results and toxic doses are left out. Some entries of the source have several records that differ or are many. Only these are listed. The source may hold further records. The records of an entry do not match, cause unknown; they may come from other doses, times, organisms or constructs than stated.

The assay deals with P388 leukemia ip, CD2F1 mice, survival T/C. Nature of the assay: NCI In Vivo Anticancer Drug Screen. Data for tumor model P388 Leukemia (intraperitoneal) in CD2F1 (CDF1) mice. As to conditions: endpoint: median survival time, higher = longer survival.

Consider `COc1cc2c(cc1O)c(O)cc1c3cc(OC)c(OC)cc3c[n+](C)c21`, for which, for the setting “dose: 100.0 mg/kg/injection, schedule: Q01DX005 (ip), vehicle: Klucel (hydroxypropylcellulose) (HPC)”, the T/C was 107 % of control and 163 % of control.
On to `OCC(O)CCBr` (stereo not given), for which the T/C (dose: 400.0 mg/kg/injection, schedule: Q04DX003 (ip), vehicle: saline) is 110 % of control and 150 % of control.
With `CC1OC(OC2CC(O)(C(=O)CO)Cc3c(O)c4c(c(O)c32)C(=O)c2ccccc2C4=O)CC(N)C1O` (stereo not given), under “dose: 2.0 mg/kg/injection, schedule: Q04DX003 (ip), vehicle: water”, the T/C is 117 % of control and 155 % of control.
In the case of `c1cc(C2=NCCN2)ccc1Nc1ccc(-c2cc3ccc(C4=NCCN4)cc3[nH]2)cc1`, the T/C (dose: 15.0 mg/kg/injection, schedule: Q01DX005 (ip), vehicle: Klucel (hydroxypropylcellulose) (HPC)) is 90 % of control and 186 % of control.
On to `O=C(O)c1c2c(nc3ccccc13)Cc1ccccc1-2`, for which the T/C (dose: 100.0 mg/kg/injection, schedule: Q01DX009 (ip), vehicle: saline with Tween-80) is 110 % of control and 150 % of control.

The values above are taken from PubChem BioAssay AID330 (DTP/NCI, 2004).
